Reference: PubChem BioAssay (NCI)
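Dose response: 5 concentrations. Exposure: 48 h. Format: 96-well plates. Endpoint: linear interpolation; highest concentration if not reached. GI50: concentration for 50% inhibition of growth. The concentration for full growth arrest is given as TGI.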

Tested on: NCI-H322M lung
Test: DTP human tumour cell line panel, 48 h

SMILES | GI50 | TGI
N#Cc1ccc(-c2nn(-c3ccc(C(=O)O)cc3)cc2CNc2cc(Cl)cc(C(F)(F)F)c2)cc1 | 10.7 µM | 26.8 µM
COc1cc(/C=C/C(=O)c2cnn(-c3cc(=O)[nH]c4ccc(C)cc34)c2C)cc(OC)c1OC | 2.78 µM | 10 µM
